Measurements as given in PubChem BioAssay AID540317 (National Center for Advancing Translational Sciences (NCATS), 2011).
Among all 390,000 compounds or so, about 2,200 (0.56%) were called active. Inconclusive results, whose numbers are uncertain, are shown with a selection of clear calls. The call rests on the fitted dose curve; in most records, active means well fitted inhibition curve with a large enough effect; inconclusive means small, poorly fitted or top-dose-only effect; inactive means no such curve, though single readings can be large or run the other way. Potencies beside an inconclusive call are fits to weak or partial responses and may not hold up.

Molecular target: Chromobox protein homolog 1 (Homo sapiens) (UniProt P83916)
Experiment: HTS for Inhibitors of HP1-beta Chromodomain Interactions with Methylated Histone Tails; further: nearly all actives have a fitted effect of over 70% in size
Conditions: AlphaScreen HP1-beta / biotin-H3K9me3 peptide binding; series mostly up to 114 µM; activity change, negative = inhibition: at the top concentration
How it was run: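 HP1-beta protein (50 nM final) preincubated 30 min at room temperature with biotinylated H3(1-18)K9me3 peptide (50 nM) in PBS pH 7.4, 0.01% Tween-20, then compound added for 30 min. AlphaScreen streptavidin donor/nickel chelate acceptor beads (10 ug/mL final), 30 min dark, luminescence read.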
Potency means the concentration at half of the fitted maximal effect; tags describe the fitted curve by direction and shape.

Chain of UniProt P83916 (P83916 whole entry, looked up): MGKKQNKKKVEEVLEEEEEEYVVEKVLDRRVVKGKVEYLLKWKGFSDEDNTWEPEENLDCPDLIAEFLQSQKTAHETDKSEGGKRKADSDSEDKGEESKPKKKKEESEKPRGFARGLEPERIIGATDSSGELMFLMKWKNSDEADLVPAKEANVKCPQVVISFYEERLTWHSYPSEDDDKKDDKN

Question: How did the “activity change, negative = inhibition” value turn out when O=C(COc1ccccc1)N/N=C/c1ccc([N+](=O)[O-])o1 was run?
Answer: inactive: 39%

Question: Oc1ccc(CN2CCCc3ccccc32)c2cccnc12 was tested. Which Potency did it give?
Answer: inconclusive: 3.16 µM [inhibitor, partial curve, poor fit]

Question: How did the Potency turn out when CCOC(=O)C1CCN(Cc2ccc(F)cc2F)CC1 was run?
Answer: inconclusive: 50.1 µM [inhibitor, partial curve]

Question: COc1ccc(NC(=O)CSc2nnc(-c3cccs3)o2)cc1 was tested. Which “activity change, negative = inhibition” value did it give?
Answer: inactive: 24.9%

Question: How did the Potency turn out when CC(=O)C(C(C)=O)c1c(Cl)c(O)c(O)c2c(C(=O)c3ccccc3)coc12 was run?
Answer: inconclusive: 22.4 µM [inhibitor, full curve, poor fit]

Question: With COc1cc(C(=S)N2CCCC2)cc(Cl)c1OCC(=O)Nc1ccc(C)cc1C as the compound, how does the Potency read?
Answer: inconclusive: 15.8 µM [inhibitor, full curve]

Question: COc1ccc(C2Nc3cccc4cccc(c34)N2)cc1 was tested. Which Potency did it give?
Answer: inconclusive: 50.1 µM [inhibitor, partial curve]

Question: For Cc1nc(SCC(=O)Nc2cc(Cl)ccc2[N+](=O)[O-])nc(C)c1C, which Potency is on record?
Answer: inconclusive: 39.8 µM [inhibitor, partial curve, poor fit]

Question: With COc1ccccc1-c1nnc(SCCN2CCOCC2)n1-c1ccc(C)cc1 as the compound, how does the Potency read?
Answer: inconclusive: 39.8 µM [inhibitor, partial curve]

Question: With COc1ccc2c(c1OC)C(=O)OC2Nc1nc(-c2ccc(-c3ccccc3)cc2)cs1 (stereo not drawn) as the compound, how does the Potency read?
Answer: inconclusive: 50.1 µM [inhibitor, partial curve]

Question: How did the Potency turn out when COCCCNC(=O)C[C@H]1C[C@H](C(=O)N2CCOCC2)[C@@]2(CCC3CCCC3)c3[nH]c4cc(-c5ccco5)ccc4c3CCN2C1=O was run?
Answer: inconclusive: 50.1 µM [inhibitor, partial curve, poor fit]

Question: How did the Potency turn out when CCOC(=O)c1c(C)[nH]sc1=S was run?
Answer: inconclusive: 89.1 µM [inhibitor, single point]

Question: For O=C(O)CCCNC(=O)/C=C/c1ccco1, which Potency is on record?
Answer: active: 35.5 µM

Question: Which Potency does the source give for COc1ccc(-c2nc(-c3ccccc3)c(-c3ccc(O)cc3)[nH]2)cc1 here?
Answer: inconclusive: 15.8 µM [inhibitor, partial curve, poor fit]

Question: Which “activity change, negative = inhibition” value does the source give for COC(=O)c1ccccc1NC(=O)Cn1nnc2sc(-c3ccccc3)cc2c1=O here?
Answer: inactive: 29.8%

Question: Which Potency does the source give for CCn1c(NC(=O)c2nn(C)cc2Br)nc2ccccc21 here?
Answer: inconclusive: 39.8 µM [inhibitor, single point]

Question: Which Potency does the source give for CC(C)CC(=O)N1CCN(c2ccc([N+](=O)[O-])c(NCc3ccccc3)c2)CC1 here?
Answer: inconclusive: 17.8 µM [inhibitor, full curve]

Question: Cc1cc(C)c(S(=O)(=O)/N=C2/C=C(Sc3ncn[nH]3)C(=O)c3ccccc32)cc1C was tested. Which Potency did it give?
Answer: inconclusive: 2.24 µM [inhibitor, full curve, poor fit]

Question: How did the Potency turn out when O=[N+]([O-])c1cc(CN2CCCC2)ccc1Sc1ccc(Cl)cc1 was run?
Answer: active: 39.8 µM

Question: For O=C(Nc1ncc(Cc2cc(Cl)ccc2Cl)s1)c1ccc([N+](=O)[O-])cc1, which Potency is on record?
Answer: inconclusive: 14.1 µM [inhibitor, partial curve, poor fit]

Question: Which “activity change, negative = inhibition” value does the source give for Cc1cnc(C(=O)OC(C)C(=O)Nc2ccc(Oc3ccccc3)cc2)cn1 (stereo not drawn) here?
Answer: inactive: 36.6%

Question: Which “activity change, negative = inhibition” value does the source give for CC1=Nc2ccccc2/C1=C/c1c(N)n2c(S(=O)(=O)CC(C)C)nsc2nc1=O here?
Answer: inactive: -0.68%

Question: For CC(=O)Nc1ccc(SCC(c2ccccc2)N2CCN(C)CCC2=O)cc1 (stereo not drawn), which “activity change, negative = inhibition” value is on record?
Answer: inactive: 14.9%

Question: Cc1c(C)n(Cc2ccccc2)c2ncnc(NCCCN(C)C)c12 was tested. Which Potency did it give?
Answer: inconclusive: 39.8 µM [inhibitor, partial curve, poor fit]

Question: For CCCCN1CCCc2cc(CN(CCCN3CCOCC3)C(=O)Nc3ccc(OCC)cc3)ccc21, which Potency is on record?
Answer: inconclusive: 14.1 µM [inhibitor, full curve]

Question: With Cn1c(N=Nc2ccccc2)nc2ccccc21 as the compound, how does the Potency read?
Answer: inconclusive: 50.1 µM [inhibitor, partial curve]

Question: How did the Potency turn out when CC1CCCN(CCCOc2ccc(Br)cc2Cl)C1 (stereo not drawn) was run?
Answer: inconclusive: 44.7 µM [inhibitor, partial curve, poor fit]

Question: For OC(COCC(F)(F)C(F)(F)C(F)(F)C(F)F)Cn1c2ccccc2c2ccccc21 (stereo not drawn), which “activity change, negative = inhibition” value is on record?
Answer: inactive: 80.4%

Question: COc1cc(/C=N/NC(=O)c2csc3c2CCCC3)ccc1OCCN1CCOCC1 was tested. Which “activity change, negative = inhibition” value did it give?
Answer: inactive: 47.6%

Question: Which Potency does the source give for COc1cc(OC)cc(-c2ncc3ccccn23)c1 here?
Answer: inconclusive: 20 µM [inhibitor, full curve, poor fit]

Question: Which Potency does the source give for N=c1c2c(ncn1Cc1ccco1)Oc1ccc3ccccc3c1C2c1ccccc1 (stereo not drawn) here?
Answer: inconclusive: 28.2 µM [inhibitor, partial curve, poor fit]

Question: Cn1c(-c2ccccc2)c(CCO)c2ccccc21 was tested. Which Potency did it give?
Answer: inconclusive: 25.1 µM [inhibitor, full curve]

Question: How did the Potency turn out when Cc1ccc(Nc2nc(N)nc(CN3CCN(Cc4ccc5c(c4)OCO5)CC3)n2)c(C)c1 was run?
Answer: inconclusive: 0.708 µM [inhibitor, full curve, poor fit]

Question: CC1CCc2c(sc(NC(=O)c3nc4ncccn4n3)c2C#N)C1 (stereo not drawn) was tested. Which Potency did it give?
Answer: inconclusive: 14.1 µM [inhibitor, partial curve, poor fit]

Question: For CC(=O)Nc1c(C(=O)N2CCOCC2)cnn1-c1ccc(C)c(C)c1, which “activity change, negative = inhibition” value is on record?
Answer: inactive: 62.8%

Question: Which “activity change, negative = inhibition” value does the source give for S=C(NC1CCCCC1)N1CCn2cccc2C1c1cccnc1 (stereo not drawn) here?
Answer: inactive: -27%

Question: With Cc1cccc(N2CC(C)Cn3c2nc2c3c(=O)n(CC(=O)OCc3ccccc3)c(=O)n2C)c1 (stereo not drawn) as the compound, how does the Potency read?
Answer: inconclusive: 25.1 µM [inhibitor, single point]

Question: With COc1ccc(NC(=S)Nc2ccc3snnc3c2)cc1 as the compound, how does the Potency read?
Answer: inconclusive: 17.8 µM [inhibitor, partial curve, poor fit]

Question: For NC(=O)c1ccc(SCC(=O)OCC(=O)NC2CCCCCCC2)c([N+](=O)[O-])c1, which Potency is on record?
Answer: inconclusive: 44.7 µM [inhibitor, partial curve]

Question: Which Potency does the source give for CN(CC(=O)Nc1cccc(F)c1)C(=O)c1ccc(N2CCCCCC2)c([N+](=O)[O-])c1 here?
Answer: inconclusive: 50.1 µM [inhibitor, partial curve]

Question: Which “activity change, negative = inhibition” value does the source give for CCOC(=O)CCNC(=O)c1ccccc1Br here?
Answer: inactive: 64.7%

Question: How did the “activity change, negative = inhibition” value turn out when CC(C)(C)OC(=O)N1CCC(c2c(C(=O)NCCN3CCC(Cc4ccccc4)CC3)cnn2-c2ccccc2)CC1 was run?
Answer: inactive: 2.34%

Question: How did the “activity change, negative = inhibition” value turn out when COc1cccc(C2=NOC(C(=O)Nc3ccc4c(c3)OCO4)C2)c1OC (stereo not drawn) was run?
Answer: inactive: 0.425%

Question: For O=c1c2ccccc2sn1-c1ccccc1, which Potency is on record?
Answer: inconclusive: 31.6 µM [inhibitor, partial curve]

Question: For O=C(CNCc1ccccc1Cl)Nc1ccccc1N1CCCCC1, which Potency is on record?
Answer: inconclusive: 22.4 µM [inhibitor, full curve]

Question: With O=C1NC(=S)SC1=Cc1ccccc1Br as the compound, how does the Potency read?
Answer: inconclusive: 25.1 µM [inhibitor, partial curve, poor fit]

Question: How did the Potency turn out when O=c1cc(CO)oc(C(Nc2ccccn2)c2ccccc2F)c1O (stereo not drawn) was run?
Answer: inconclusive: 17.8 µM [inhibitor, partial curve, poor fit]

Question: How did the “activity change, negative = inhibition” value turn out when CC1=NN(c2ccccc2)C(=O)C1C(=O)c1ccccc1 (stereo not drawn) was run?
Answer: inactive: 0%

Question: How did the “activity change, negative = inhibition” value turn out when CNC1(C(N)=O)CCNCC1 was run?
Answer: inactive: 43.8%

Question: With CN1CCN(C2=Nc3c(Cl)cc(Cl)c4cccc2c34)CC1 as the compound, how does the Potency read?
Answer: inconclusive: 15.8 µM [inhibitor, partial curve, poor fit]

Question: Which “activity change, negative = inhibition” value does the source give for Cc1ccc(Cn2ccn(Cc3ccccc3C)c(=O)c2=O)cc1 here?
Answer: inactive: 11.5%

Question: With Fc1ccc(CN2CCSCC2)cc1Br as the compound, how does the Potency read?
Answer: inconclusive: 44.7 µM [inhibitor, partial curve]

Question: For CCC(=O)N(Cc1cc(=O)[nH]c2ccccc12)c1ccc(C)cc1, which Potency is on record?
Answer: inconclusive: 70.8 µM [inhibitor, partial curve, poor fit]

Question: Which Potency does the source give for COc1cc(CN2CCN(C(=O)c3ccccc3F)CC2)cc(OC)c1OC here?
Answer: inconclusive: 15.8 µM [inhibitor, partial curve, poor fit]

Question: Which “activity change, negative = inhibition” value does the source give for Cc1ccc(CN2CCN(CC(=O)NCc3ccccc3Cl)C2=O)cc1 here?
Answer: inactive: 18.4%

Question: O=C1CCC(C(=O)Nc2cccc(S(=O)(=O)Nc3ccccc3F)c2)=NN1 was tested. Which Potency did it give?
Answer: inconclusive: 3.98 µM [inhibitor, full curve, poor fit]

Question: How did the Potency turn out when Cc1ccc(NCCC(=O)c2cccs2)cc1C was run?
Answer: inconclusive: 70.8 µM [inhibitor, partial curve]

Question: Which Potency does the source give for Cc1cccc(C)c1-n1cccc1/C=C1\SC(=S)N(c2cccc(C(=O)O)c2)C1=O here?
Answer: inconclusive: 39.8 µM [inhibitor, partial curve]

Question: For Cc1ccccc1OCCn1c(=S)[nH]c2ccccc21, which “activity change, negative = inhibition” value is on record?
Answer: inactive: 28.6%

Question: How did the Potency turn out when COc1ccc(N2CCN(S(=O)(=O)c3ccc4c(c3)CCCC4)CC2)c([N+](=O)[O-])c1 was run?
Answer: inconclusive: 10 µM [inhibitor, partial curve, poor fit]

Question: For CC(C)Cc1ccc(C(C)/C=C2/CCC(CN3CCCCC3)C2=O)cc1 (stereo not drawn), which “activity change, negative = inhibition” value is on record?
Answer: inactive: 29.6%

Question: How did the Potency turn out when C[C@]12c3[nH]c4cc(-c5ccco5)ccc4c3CCN1C(=O)[C@@H](CC(=O)NCCC1=CCCCC1)C[C@@H]2C(=O)N1CCOCC1 was run?
Answer: inconclusive: 39.8 µM [inhibitor, partial curve]

Question: With COc1ccccc1N1CCN(CC(O)COc2cc(C)cc(C)c2)CC1 (stereo not drawn) as the compound, how does the “activity change, negative = inhibition” value read?
Answer: inactive: 14.6%

Question: With CC1CCN(c2nc(N(C)c3ccccc3)nc(N)c2[N+](=O)[O-])CC1 as the compound, how does the Potency read?
Answer: inconclusive: 50.1 µM [inhibitor, partial curve]

Question: How did the Potency turn out when COc1cc(C)c(NC(=S)Nc2ccc(Cl)c(Cl)c2)cc1OC was run?
Answer: inconclusive: 39.8 µM [inhibitor, partial curve, poor fit]

Question: With COc1ccc(CNCc2cccc3ccccc23)cc1 as the compound, how does the Potency read?
Answer: inconclusive: 15.8 µM [inhibitor, partial curve, poor fit]

Question: O=C1c2cccc3c([N+](=O)[O-])c(O)cc(c23)C(=O)N1Nc1ccccc1 was tested. Which Potency did it give?
Answer: inconclusive: 31.6 µM [inhibitor, full curve]

Question: Which Potency does the source give for CC1CCN(C(=O)c2ccc(SCc3ccccc3F)c([N+](=O)[O-])c2)CC1 here?
Answer: inconclusive: 44.7 µM [inhibitor, partial curve]
